Results as given in the supplement of paper PMC4967469.

Tests used:
Test in all cases: Viability of human cancer cell lines after 72 h of drug (GDSC screen)
SB-505124 = compound: Cc1cccc(-c2[nH]c(C(C)(C)C)nc2-c2ccc3c(c2)OCO3)n1 [SB-505124]; details: top dose 10 µM; top dose inferred
Protocol: (§1)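 Human cancer cell lines in 384-well plates, medium with 10% serum, drug for 72 h over a 256-fold dose range (nine 2-fold or five 4-fold steps up to the top dose). Adherent lines were fixed and stained with the nucleic acid dye Syto60, suspension lines read with resazurin; signal relative to control wells, capped at 0 and 100%. One two-parameter sigmoid per drug and line, fitted in a mixed model over all curves with the slope shared within a line.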

WH-4-023 = compound: COc1ccc(N(C(=O)Oc2c(C)cccc2C)c2ccnc(Nc3ccc(N4CCN(C)CC4)cc3)n2)c(OC)c1 [WH-4-023]; details: top dose 5.12 µM; top dose inferred
Protocol: as §1

UNC0638 = compound: COc1cc2c(NC3CCN(C(C)C)CC3)nc(C3CCCCC3)nc2cc1OCCCN1CCCC1 [UNC0638]
Protocol: as §1

GSK690693 = compound: CCn1c(-c2nonc2N)nc2c(C#CC(C)(C)O)ncc(OC[C@H]3CCCNC3)c21 [GSK690693]; details: top dose 10.24 µM; top dose inferred
Protocol: as §1

Tretinoin = compound: CC1=C(/C=C/C(C)=C/C=C/C(C)=C/C(=O)O)C(C)(C)CCC1 [Tretinoin]; details: top dose 10 µM; top dose inferred
Protocol: as §1

PI-103 = compound: Oc1cccc(-c2nc(N3CCOCC3)c3oc4ncccc4c3n2)c1 [PI-103]; details: top dose 10.24 µM
Protocol: as §1

BX-795 = compound: O=C(NCCCNc1nc(Nc2cccc(NC(=O)N3CCCC3)c2)ncc1I)c1cccs1 [BX-795]; details: top dose 5 µM; top dose inferred
Protocol: as §1

[1] = top dose 20 µM, screen: GDSC drug entry 1236, top dose inferred
[2] = top dose 40 µM, screen: GDSC drug entry 245

Cell Line | AUC (SB-505124) | IC50 (SB-505124) [µM] | AUC (WH-4-023) | IC50 (WH-4-023) [µM] | AUC (UNC0638; [1]) | IC50 (UNC0638; [1]) [µM] | AUC (UNC0638; [2]) | IC50 (UNC0638; [2]) [µM] | AUC (GSK690693) | IC50 (GSK690693) [µM] | AUC (Tretinoin) | IC50 (Tretinoin) [µM] | AUC (PI-103) | IC50 (PI-103) [µM] | AUC (BX-795) | IC50 (BX-795) [µM]
BB65-RCC (kidney, adherent) | 0.972 | > 10 | 0.763 | 2.12 | 0.966 | > 20 | 0.876 | > 40 | 0.979 | > 10.2 | 0.968 | > 10 | 0.805 | 6.13 |  | 
DOHH-2 (B-cell lymphoma, suspension) |  |  | 0.112 | < 0.02 |  |  |  |  |  |  | 0.894 | > 10 |  |  | 0.754 | 1.65
EHEB (lymphoid neoplasm, suspension) | 0.941 | > 10 | 0.807 | 4.26 | 0.815 | 18.2 |  |  |  |  | 0.804 | 8.03 |  |  | 0.955 | > 5
GA-10 (Burkitt lymphoma, suspension) | 0.958 | > 10 | 0.301 | 0.0982 | 0.646 | 2.95 |  |  |  |  | 0.961 | > 10 |  |  | 0.91 | > 5
GAK (melanoma, adherent) | 0.967 | > 10 | 0.989 | > 5.12 | 0.875 | 18.1 | 0.82 | 21.6 | 0.99 | > 10.2 | 0.976 | > 10 |  |  | 0.975 | > 5
IM-9 (myeloma, suspension) | 0.974 | > 10 | 0.989 | > 5.12 | 0.83 | 10.2 |  |  |  |  | 0.991 | > 10 |  |  | 0.975 | > 5
KASUMI-1 (acute myeloid leukaemia, suspension) | 0.96 | > 10 | 0.973 | > 5.12 | 0.728 | 5.57 |  |  | 0.322 | 0.204 | 0.93 | > 10 | 0.09 | < 0.04 |  | 
KMS-12-BM (myeloma, suspension) |  |  | 0.983 | > 5.12 |  |  | 0.671 | 6.79 | 0.829 | 4.91 | 0.833 | 4.95 | 0.236 | 0.131 |  | 
LB647-SCLC (small cell lung carcinoma, semi-adherent) | 0.983 | > 10 | 0.96 | > 5.12 | 0.793 | 10.4 | 0.698 | 9.71 |  |  | 0.944 | > 10 |  |  | 0.804 | 2.86
LB2241-RCC (kidney, adherent) | 0.946 | > 10 | 0.978 | > 5.12 | 0.931 | > 20 | 0.976 | > 40 | 0.984 | > 10.2 | 0.979 | > 10 | 0.98 | > 10.2 |  | 
LS-123 (large intestine, adherent) | 0.938 | > 10 | 0.794 | 3.27 | 0.979 | > 20 | 0.813 | 31.1 | 0.966 | > 10.2 | 0.982 | > 10 | 0.517 | 0.723 |  | 
LU-139 (small cell lung carcinoma, suspension) | 0.967 | > 10 | 0.981 | > 5.12 | 0.61 | 2.74 | 0.54 | 3.32 | 0.959 | > 10.2 | 0.798 | 6.35 | 0.381 | 0.274 |  | 
MOLM-13 (acute myeloid leukaemia, suspension) | 0.979 | > 10 | 0.889 | > 5.12 | 0.749 | 6.11 | 0.578 | 4.02 | 0.664 | 1.77 |  |  | 0.146 | 0.0559 | 0.404 | 0.173
MZ7-mel (melanoma, adherent) | 0.985 | > 10 | 0.874 | > 5.12 | 0.744 | 6.44 | 0.569 | 3.9 | 0.984 | > 10.2 |  |  | 0.914 | > 10.2 | 0.985 | > 5
NB7 (neuroblastoma, adherent) | 0.882 | > 10 | 0.965 | > 5.12 | 0.985 | > 20 | 0.846 | 31.2 | 0.976 | > 10.2 |  |  | 0.499 | 0.638 | 0.846 | 3.9
NB-4 (acute myeloid leukaemia, suspension) | 0.99 | > 10 | 0.989 | > 5.12 | 0.74 | 5.16 | 0.525 | 2.89 | 0.913 | 10.2 |  |  | 0.304 | 0.204 | 0.811 | 2.08
NCI-H1355 (lung adenocarcinoma, adherent) | 0.914 | > 10 | 0.746 | 2.28 | 0.906 | > 20 | 0.964 | > 40 | 0.978 | > 10.2 |  |  | 0.914 | > 10.2 | 0.887 | > 5

Cell Line | AUC (SB-505124) | IC50 (SB-505124) [µM] | AUC (WH-4-023) | IC50 (WH-4-023) [µM] | AUC (UNC0638; [1]) | IC50 (UNC0638; [1]) [µM] | AUC (UNC0638; [2]) | IC50 (UNC0638; [2]) [µM] | AUC (GSK690693) | IC50 (GSK690693) [µM] | AUC (Tretinoin) | IC50 (Tretinoin) [µM] | AUC (PI-103) | IC50 (PI-103) [µM] | AUC (BX-795) | IC50 (BX-795) [µM]
NCI-H1581 (large cell lung carcinoma, semi-adherent) | 0.968 | > 10 | 0.873 | 4.25 | 0.981 | > 20 | 0.863 | 30.2 | 0.987 | > 10.2 | 0.99 | > 10 | 0.644 | 1.54 |  | 
NCI-H1666 (lung adenocarcinoma, semi-adherent) | 0.985 | > 10 | 0.985 | > 5.12 | 0.723 | 5.73 | 0.777 | 17.7 | 0.972 | > 10.2 | 0.943 | > 10 | 0.932 | > 10.2 |  | 
NCI-H1963 (small cell lung carcinoma, suspension) |  |  | 0.984 | > 5.12 |  |  | 0.74 | 10.8 |  |  | 0.991 | > 10 |  |  |  | 
NTERA-2 cl.D1 (testis, adherent) | 0.975 | > 10 | 0.509 | 0.339 | 0.687 | 4.16 | 0.666 | 7.19 | 0.982 | > 10.2 | 0.924 | > 10 | 0.682 | 2.05 |  | 
PL-21 (acute myeloid leukaemia, suspension) | 0.96 | > 10 | 0.982 | > 5.12 | 0.786 | 10.2 | 0.694 | 9.71 | 0.592 | 1.2 | 0.855 | > 10 | 0.133 | < 0.04 |  | 
RL95-2 (endometrium, adherent) | 0.971 | > 10 | 0.661 | 0.892 | 0.946 | > 20 | 0.846 | 28.6 | 0.974 | > 10.2 | 0.802 | 4.86 | 0.964 | > 10.2 |  | 
RPMI-8226 (myeloma, suspension) | 0.979 | > 10 | 0.976 | > 5.12 | 0.688 | 3.88 | 0.606 | 4.69 | 0.979 | > 10.2 |  |  | 0.331 | 0.233 | 0.836 | 2.73
RS4-11 (leukaemia, suspension) | 0.985 | > 10 | 0.97 | > 5.12 | 0.798 | 8.61 | 0.553 | 3.45 | 0.471 | 0.538 |  |  | 0.126 | 0.0483 | 0.65 | 0.783
SCC-15 (head and neck, adherent) | 0.909 | > 10 | 0.801 | 3.56 | 0.852 | > 20 | 0.834 | 39.7 | 0.961 | > 10.2 |  |  | 0.868 | > 10.2 | 0.792 | 3.17
SK-N-DZ (neuroblastoma, adherent) | 0.987 | > 10 | 0.908 | > 5.12 | 0.873 | 18.9 | 0.937 | > 40 | 0.988 | > 10.2 | 0.946 | > 10 | 0.96 | > 10.2 |  | 
SU-DHL-8 (B-cell lymphoma, suspension) | 0.981 | > 10 | 0.959 | > 5.12 | 0.806 | 9.39 | 0.656 | 6.55 | 0.821 | 5.39 |  |  | 0.17 | 0.0701 | 0.98 | > 5
TC-71 (Ewing sarcoma, adherent) | 0.965 | > 10 | 0.992 | > 5.12 | 0.825 | 9.4 | 0.927 | > 40 | 0.975 | > 10.2 |  |  | 0.478 | 0.563 | 0.787 | 1.78
TE-10 (oesophagus, adherent) | 0.967 | > 10 | 0.824 | 2.97 | 0.894 | > 20 | 0.936 | > 40 | 0.986 | > 10.2 |  |  | 0.845 | 7.19 | 0.927 | > 5
THP-1 (acute myeloid leukaemia, suspension) | 0.985 | > 10 | 0.983 | > 5.12 | 0.826 | 10.5 | 0.56 | 3.58 | 0.826 | 5.38 |  |  | 0.541 | 0.818 | 0.991 | > 5
WSU-DLCL2 (B-cell lymphoma, suspension) | 0.952 | > 10 | 0.993 | > 5.12 | 0.018 | < 0.0781 | 0.791 | 14.8 |  |  | 0.975 | > 10 |  |  | 0.805 | 2.02
no-10 (glioma, adherent) | 0.972 | > 10 | 0.803 | 3.26 | 0.893 | > 20 | 0.871 | > 40 | 0.95 | > 10.2 | 0.979 | > 10 | 0.71 | 2.9 |  | 

A lower IC50 marks a more sensitive line; a fit beyond the top or the lowest dose is shown as a bound at that dose. The AUC spans the tested range (256-fold, ending at the top dose) of the same fit: 1 means no effect, lower means more sensitive. For some of these results: An inferred top dose was derived from the fitted curves, not read from the paper. For some of these results: Drugs with an entry number were screened twice under separate entries, and the two screens often disagree.
